Experimental data published in PubChem BioAssay AID1745845 (National Center for Advancing Translational Sciences (NCATS), 2022).
Values joined by “and” are separate entries in the source; they are usually repeats but may differ in a detail not shown here. Equal entries are not always repeated. Hit rate of the full screen: of about 360,000 compounds, about 2,600 (0.72%) were called active. The inconclusive results got no clear call from the source; some entries with a clear call stand among them for comparison. Calls come from the whole dose curve; as a rule, active = well fitted inhibition curve with a large enough effect; inconclusive = small, poorly fitted or top-dose-only effect; inactive = no such curve, though single readings can be large or run the other way. Potencies of inconclusive entries are doubtful fits and often do not repeat. A structure can be active in one record and inactive in another.

test: Primary qHTS for Inhibitors of ATXN expression; details: HEK-293 ATXN2-luciferase reporter, luminescence, 24 h; series mostly up to 57 µM; note: nearly all actives have a fitted effect of over 55% in size
Summary of the method: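 ATXN2-luciferase reporter cells (luciferase flanked by upstream and downstream ATXN2 gene portions) were treated 24 h at 37 °C with compounds at up to 57 uM. SteadyGlo luminescence gave expression; GF-AFC fluorescence gave viability.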
Potency is the fitted concentration of half-maximal effect; tags give direction and shape of the fitted curve.

SMILES | Potency
Cc1ccc(-n2nc3c4c(cccc4c2=O)-c2ccccc2-3)cc1 | inconclusive: 39.8 µM [inhibitor, partial curve, poor fit]
CCCCN(CCCC)CC(O)c1cc(Cl)cc2c1-c1ccc(Cl)cc1/C2=C/c1ccc(Cl)cc1 (configuration not stated) | active: 25.1 µM
CCOC(=O)c1cnc2c(ccc3ccccc32)c1Nc1ccc(C(C)=O)cc1 | inactive
CC(=O)CC1(OC(C)=O)C(=O)N(C)c2ccccc21 (configuration not stated) | inactive
CC(=O)C1=CCC(c2ccc(Br)cc2)N(S(=O)(=O)c2ccc(C)cc2)C1 (configuration not stated) | inconclusive: 22.4 µM [inhibitor, partial curve, poor fit]
COc1ccccc1N(CC(=O)NC1CCCC1)C(=O)c1oc(C(C)(C)C)cc1C | inconclusive: 22.4 µM [inhibitor, partial curve, poor fit]
O=C(Nc1nnc(-c2ccco2)o1)c1cc(-c2ccccc2)nc2ccccc12 | inconclusive: 24.3 µM [inhibitor, partial curve]
C[C@@H]1CCC[C@H](C)N1 | inactive
N#CC1(Nc2cccc(Cl)c2)CCCC1 | inactive
C[C@@H](O[C@H]1OCCN(Cc2n[nH]c(=O)[nH]2)[C@H]1c1ccc(F)cc1)c1cc(C(F)(F)F)cc(C(F)(F)F)c1 | inconclusive: 39.8 µM [inhibitor, single point]
COc1ccccc1NC(=O)/C(C#N)=C/c1cc([N+](=O)[O-])ccc1N1CCCC1 | inactive
COc1cccc(CN2CCC2(C)C(=O)Nc2ccc3c(c2)OCO3)c1F (configuration not stated) | inconclusive: 31.6 µM [inhibitor, single point]
Cc1ccc(C(=O)NC(=S)/C=C2\N(C)c3ccccc3C2(C)C)cc1 | inconclusive: 15.8 µM [inhibitor, partial curve, poor fit]
O=C(NC1=C(NC2CCS(=O)(=O)C2)C(=O)c2ccccc2C1=O)c1ccccc1 (configuration not stated) | inconclusive: 3.36 µM [inhibitor, partial curve, poor fit]
Cc1cc(=O)[nH]c(NN=Cc2cc(Br)ccc2O)n1 | inconclusive: 5.32 µM [inhibitor, full curve]
Cc1nc2ccc(C(=O)c3ccccc3)cc2[nH]1 | inactive
CCc1ccccc1Nc1nn2c(=O)c3ccc(C(=O)NCCC4=CCCCC4)cc3nc2s1 | inconclusive: 1.12 µM [inhibitor, full curve]
C[C@H]1CN([C@@H](C)CO)S(=O)(=O)c2ccc(/C=C/c3ccccc3)cc2O[C@H]1CN(C)C(=O)NC1CCCCC1 | inconclusive: 20 µM [inhibitor, partial curve]
CCN1CCN(CCNC(=O)CCc2c(C)c3c(C)nn(-c4ccccc4)c3n(C)c2=O)CC1 | inactive
Cc1c(-c2cccc3c(CCCOc4cccc5ccccc45)c(C(=O)O)n(Cc4cccnc4)c23)c(COc2ccc(N3CCN([S+](=O)([O-])N(C)C)CC3)cc2)nn1C | inconclusive: 30.6 µM [inhibitor, single point]
Cc1cc(C)c(C)c(S(=O)(=O)NCc2ccncc2)c1C | inconclusive: 3.98 µM [inhibitor, partial curve, poor fit]
C[n+]1c2n(c3ccccc31)N=C(c1ccc(Cl)cc1)CS2 | inconclusive: 2.24 µM [inhibitor, single point]
C=C(C)C(=O)Oc1ccc(N=Nc2ccc(C)cc2)ccc1=O | inconclusive: 39.8 µM [inhibitor, single point]

SMILES | Potency
O=C(Nc1cccc(S(=O)(=O)N2CCCCC2)c1)c1ccc2c(=O)n3c(nc2c1)CCCCC3 | inconclusive: 25.1 µM [inhibitor, single point]
O=C(CC(C(=O)O)c1c(F)cccc1Cl)c1ccc(Cl)cc1 (configuration not stated) | inactive
O=C(CCl)Nc1cccc(Oc2cnccn2)c1 | inconclusive: 39.8 µM [inhibitor, single point]
Cc1ccc(S(=O)(=O)Nc2ccccc2C(=O)Nc2nc(-c3ccc(F)cc3)cs2)cc1 | inconclusive: 31.6 µM [inhibitor, single point]
O=C(N/N=C/C1CCCCC1)c1ccccn1 | inactive
c1ccc2c(-c3nc(C4CCCCC4)no3)cc(-c3ccncc3)nc2c1 | inconclusive: 20 µM [inhibitor, single point]
CCN(CC)C(=O)C1=C(C)N(Cc2ccc(C(C)(C)C)cc2)C(=O)C(CC(=O)NCCCCc2ccccc2)C1 (configuration not stated) | inconclusive: 28.2 µM [inhibitor, single point]
COc1ccc(N2CCN(C(c3cccs3)C(C)NC(=O)C(=O)N3CCCCC3)CC2)cc1 (configuration not stated) | inactive
CCCCN(CCCC)S(=O)(=O)c1ccc(C(=O)Nc2nnc(CSC)o2)cc1 | inconclusive: 17.8 µM [inhibitor, partial curve]
COc1ccc(C(=O)C2CCCN(S(=O)(=O)c3ccc(C(C)=O)cc3)C2)c(C)c1 (configuration not stated) | inconclusive: 14.1 µM [inhibitor, partial curve, poor fit]
CCOc1cc(/C=C2\CCC/C(=C\c3cc(Cl)c(O)c(OCC)c3)C2=O)cc(Cl)c1O | active: 8.91 µM
COc1cccc(-c2cc(NC=O)c3ncc(-c4cccc(C(=O)NCCN(C)C)c4)n3c2)c1 | inactive
CCOC(=O)C1CCCN(CC(=O)Nc2c(C(=O)OC)[nH]c3ccc(Cl)cc23)C1 (configuration not stated) | inactive
CCCNC(=O)[C@H]1O[C@H]1C(=O)N[C@H](C(=O)N1CCC[C@@H]1C(=O)OC)C(C)CC (some centres not stated) | active: 21.7 µM
c1ccc(Nc2cc(Nc3ccccc3)[nH]n2)cc1 | inactive
Cc1ccc(C(=O)c2cn(Cc3cccc(Cl)c3)c3nc(C)ccc3c2=O)cc1 | inconclusive: 39.8 µM [inhibitor, single point]
CCc1ccc(NC(=O)CSc2ccnc(=O)[nH]2)cc1 | inactive
CCc1nc2c(OCc3ccccc3C)cccn2c1N(C)C(=O)CC(C)C | inconclusive: 25.1 µM [inhibitor, single point]
CC(=NNC(=S)N1CCC1)c1ccccn1 | inactive and active: 34.3 nM
Cc1cc(C(=O)Nc2sc3c(c2C#N)CCC3)no1 | inactive
COc1ccc(-c2sc3ccc(OC)cc3c2-c2ccc(O)cc2)cc1 | inconclusive: 35.5 µM [inhibitor, partial curve, poor fit]
CSc1ccc(CN(C)C(=O)c2cccc(S(=O)(=O)NCc3ccccc3)c2)cc1 | inconclusive: 7.94 µM [inhibitor, partial curve, poor fit]
CC(=O)Nc1sc(C)c(C)c1C(=O)OCC(=O)Nc1ccc(S(N)(=O)=O)cc1 | inactive

SMILES | Potency
COc1cc(NC(=O)COc2cc(O)c3c(c2)OC(C)(C)CC3=O)cc(OC)c1 | inconclusive: 17.8 µM [inhibitor, partial curve, poor fit]
c1cc2cc(CNc3nc(NCC4CC4)nc4ccsc34)ccc2o1 | inconclusive: 22.4 µM [inhibitor, partial curve, poor fit]
Cc1nn(Cc2ccc(Cl)cc2Cl)c(C)c1NC(=O)CCl | inconclusive: 28.2 µM [inhibitor, single point]
O=[N+]([O-])c1ccc2c(c1)/C(=N\O)c1ccccc1-2 | inconclusive: 29.9 µM [inhibitor, single point]
CCOC(=O)c1nnc(-c2ccc(C)cc2)nc1Sc1ccccc1Cl | inconclusive: 20 µM [inhibitor, single point]
COc1cccc(CNC(=O)c2cc3c(-c4ccccc4F)nn(C)c3s2)c1 | inconclusive: 12.6 µM [inhibitor, partial curve, poor fit]
CC(C)CC(=O)NC(c1cccs1)c1ccc2cccnc2c1O (configuration not stated) | inconclusive: 3.55 µM [inhibitor, full curve, poor fit]
O=C(CCCn1c2ccccc2c(=O)c2ccccc21)Nc1cccc(Cl)c1 | inconclusive: 31.6 µM [inhibitor, single point]
CCOc1cc(/C=N/N=C(/N)c2nonc2N)cc(Br)c1OCc1ccc(Cl)cc1 | inconclusive: 39.8 µM [inhibitor, single point]
CCN(CC)CCOc1ccc(Nc2ncc3cc(-c4c(Cl)cccc4Cl)c(=O)n(C)c3n2)cc1 | active: 1.72 µM
COc1ccccc1Cc1c(C2CCCCC2)nc2ccc(Cl)cn12 | inconclusive: 25.1 µM [inhibitor, single point]
CCC(CC)C(=O)N1CC(=O)Nc2ccc(F)cc2C1c1ccc(F)cc1 (configuration not stated) | inactive
O=C(NC(=S)NCCO)c1cn(-c2ccccc2)nc1-c1ccccc1 | inactive
Cc1cc(C)cc(C(=O)Nc2cccc(NC(=O)c3ccco3)c2)c1 | inconclusive: 15.8 µM [inhibitor, partial curve, poor fit]
CCN(CC)c1ncnc2c1cnn2-c1cc(Cl)ccc1C | inactive
Cc1ccc(C#N)c(SCc2nnc(-c3ccc(Cl)cc3)o2)n1 | inactive
CC1(C)C2C/C(=N\O)C(C)(/[N+]([O-])=C/c3cccc([N+](=O)[O-])c3)CC21 (configuration not stated) | inconclusive: 0.752 µM [inhibitor, partial curve, poor fit]
CC(=O)Nc1cc(-c2cccc(CO)c2)cn2c(-c3ccc(C(C)=O)cc3)cnc12 | inactive
Cc1csc2ncc(C(=O)Nc3ccc4c(c3)OCCO4)c(=O)n12 | inconclusive: 39.8 µM [inhibitor, single point]
Cc1ccc(Cl)cc1-c1ccc(C=Nc2ccc(N3CCOCC3)cc2)o1 | inconclusive: 15.8 µM [inhibitor, partial curve, poor fit]
Cc1cc(NC(=O)CCc2nc3cccnc3n2-c2ccccc2)ccc1Br | inconclusive: 22.4 µM [inhibitor, partial curve, poor fit]
